From PubChem BioAssay AID1030 (National Center for Advancing Translational Sciences (NCATS), 2008)
In all, about 220,000 compounds went through this assay and about 16,000 (7.3%) were called active. Inconclusive means that the source gave no clear call. Such entries were picked first, then a sample of the others. Calls come from the whole dose curve; as a rule, active = well fitted inhibition curve with a large enough effect (not every such curve was filed as active); inconclusive = small, poorly fitted or top-dose-only effect, or another doubt; inactive = no such curve, though single readings can be large or run the other way. Potencies of inconclusive entries are left out as doubtful fits.

Biological target: Aldehyde dehydrogenase 1A1 (Homo sapiens) (UniProt P00352)
Assay: qHTS Assay for Inhibitors of Aldehyde Dehydrogenase 1 (ALDH1A1);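 for activity, negative = inhibition: plate controls were no enzyme wells and a reference inhibitor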
Settings: Purified ALDH1A1, NADH fluorescence, propionaldehyde substrate; series mostly up to 75.3 µM; activity, negative = inhibition: at the top concentration
Potency is the fitted concentration of half-maximal effect; tags give direction and shape of the fitted curve.

UniProt P00352, sequence (P00352 whole entry, looked up): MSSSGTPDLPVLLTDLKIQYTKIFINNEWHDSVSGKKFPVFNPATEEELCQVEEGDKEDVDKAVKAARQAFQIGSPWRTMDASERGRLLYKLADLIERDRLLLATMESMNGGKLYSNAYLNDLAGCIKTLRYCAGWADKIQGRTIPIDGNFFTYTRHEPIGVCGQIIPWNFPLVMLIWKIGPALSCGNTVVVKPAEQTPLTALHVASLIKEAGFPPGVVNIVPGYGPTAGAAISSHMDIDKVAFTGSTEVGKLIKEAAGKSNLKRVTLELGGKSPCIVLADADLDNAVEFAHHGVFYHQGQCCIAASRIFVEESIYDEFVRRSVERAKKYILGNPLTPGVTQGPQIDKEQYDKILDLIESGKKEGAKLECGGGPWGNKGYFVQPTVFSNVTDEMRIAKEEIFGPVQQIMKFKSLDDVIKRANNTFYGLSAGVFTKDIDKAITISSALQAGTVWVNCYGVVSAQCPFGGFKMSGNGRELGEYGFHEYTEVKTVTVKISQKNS

| Compound | activity, negative = inhibition | Potency |
| --- | --- | --- |
| CN(C)CCOC(=O)CCCCCCCCC(=O)OCCN(C)C | inactive: -14.1% |  |
| COC(=O)c1cc(Br)c(=O)n(-c2ccc(F)cc2)c1 | inactive: -4.46% |  |
| Cc1ccc(/C=C2\C(=O)Nc3ccccc32)o1 |  | active: 7.94 µM |
| COc1ccc(-c2cc(C(=O)OCC(=O)c3c(N)n(C)c(=O)n(C)c3=O)c3ccccc3n2)cc1 |  | inconclusive [inhibitor, partial curve] |
| CN(C)S(=O)(=O)c1cccc(-c2cn3cc(Cl)ccc3n2)c1 |  | inconclusive [inhibitor, partial curve] |
| O=C1c2ccccc2C2=Nc3ccccc3SC(c3ccccc3F)C12 (stereo unspecified) |  | inconclusive [inhibitor, partial curve] |
| CCCCCCNc1nc(-c2ccc(OC)cc2)c(CCC(=O)O)s1 |  | active: 22.4 µM |
| Cc1ccc(NC(=O)CS(=O)CC(=O)NCC2OCCc3ccccc32)c(C)c1 (stereo unspecified) |  | inconclusive [inhibitor, single point] |
| CCCCNC(=O)NS(=O)(=O)c1cnccc1Sc1ccc(Cl)cc1 |  | inconclusive [inhibitor, partial curve] |
| O=S(=O)(c1ccccc1)c1cnn2c(C(F)(F)F)cc(-c3ccc(F)cc3)nc12 |  | inconclusive [inhibitor, partial curve] |
| COC(=O)c1cc(OC)c(OC)cc1NC(=O)Nc1ccccc1OC |  | inconclusive [inhibitor, single point] |
| CCn1c(SCc2cccc(F)c2)nc2c(c1=O)SCC2 |  | active: 14.1 µM |
| COc1cccc2cc(-c3nnc(SCC(=O)Nc4cc(C(F)(F)F)ccc4Cl)n3N)oc12 |  | inconclusive [inhibitor, single point] |
| O=C(O)/C=C\C(=O)Nc1ccc(N2CCN(c3ccc(Cl)c(Cl)c3)CC2)cc1 |  | active: 6.31 µM |
| S=c1[nH]nc(-c2cccnc2)n1/N=C/c1ccc(Br)s1 |  | inconclusive [inhibitor, partial curve, poor fit] |
| COc1ccc(-c2cc(-c3ccccc3)c(C#N)c(SCC(=O)Nc3ncc(C)s3)n2)cc1 |  | inconclusive [inhibitor, full curve] |
| Cc1ccc(S(=O)(=O)N2CCC(C(=O)Nc3ccc4c(c3)COC4=O)CC2)cc1 |  | inconclusive [inhibitor, partial curve] |
| N/C(=N\OC(=O)Oc1ccccc1)c1cccc([N+](=O)[O-])c1 |  | inconclusive [inhibitor, single point] |
| S=c1[nH]nc(-c2cccs2)n1/N=C/c1c(Cl)cccc1Cl |  | active: 15.8 µM |
| O=C(/C=C/c1ccc([N+](=O)[O-])cc1)c1cccnc1 |  | inconclusive [inhibitor, single point] |
| COc1ccc(Cl)cc1NC(=O)C(C)N1CCN(C/C=C/c2ccccc2)CC1 (stereo unspecified) |  | inconclusive [inhibitor, single point] |
| O=C(NCc1ccco1)C(c1ccccc1)N(C(=O)Cc1cccs1)c1cccnc1 (stereo unspecified) |  | inconclusive [inhibitor, single point] |
| CC(=NCc1ccco1)c1c(C)[nH]n(-c2nc3ccccc3s2)c1=O | inactive: 4.52% |  |

| Compound | activity, negative = inhibition | Potency |
| --- | --- | --- |
| O=S(=O)(Cc1ccccc1Cl)N1CCN(Cc2ccc3c(c2)OCO3)CC1 |  | inconclusive [inhibitor, single point] |
| Cc1cc(NC(=O)CSc2nnc(NC(=O)C3CC(=O)N(c4ccccc4C)C3)s2)no1 (stereo unspecified) |  | active: 20 µM |
| Cc1ccc(C)c2[nH]c(=O)c(CCNC(=O)c3ccc(S(=O)(=O)N(C)C)cc3)cc12 |  | active: 22.4 µM |
| O=C(Nc1ccc2c(c1)OCCO2)C1CCN(S(=O)(=O)c2cccs2)CC1 |  | inconclusive [inhibitor, partial curve] |
| Cc1ccc(NS(=O)(=O)Cc2ccccc2)nc1 |  | inconclusive [inhibitor, partial curve] |
| C(=C\c1ccccc1)/CN1CCN(Cc2nc(Cc3ccccc3)no2)CC1 |  | active: 12.6 µM |
| Cc1cccc2nc(CSc3nc4[nH]ncc4c(=O)n3-c3cccc(Cl)c3)cc(=O)n12 |  | inconclusive [inhibitor, full curve] |
| COc1ccc(NC(=O)N2CCCC(c3nc(-c4ccc(C(C)C)cc4)no3)C2)cc1 (stereo unspecified) |  | inconclusive [inhibitor, partial curve] |
| COc1ccc(CCNC(=O)CNC(=O)Cn2cnc3sc(C)c(C)c3c2=O)cc1OC |  | inconclusive [inhibitor, single point] |
| COCCn1c(SCC(=O)c2ccccc2)nc2ccccc2c1=O |  | active: 17.8 µM |
| Cc1cccc2c1-c1sc(C(=O)N3CCc4ccccc4C3)cc1CO2 |  | inconclusive [inhibitor, partial curve] |
| COc1ccc(-n2nc(C(=O)NCC(=O)NCc3ccco3)c3ccccc3c2=O)cc1Cl | inactive: -7.64% |  |
| Cc1ccc(-n2c(SCC(=O)NCc3ccc4c(c3)OCO4)nnc2-c2cccnc2)c(C)c1 |  | inconclusive [inhibitor, partial curve] |
| Clc1ccc(-c2csc(N/N=C\c3cccnc3)n2)cc1 | inactive: 8.04% |  |
| CCOC1=NN(c2ccccc2)C(=O)/C1=C\N(C)C | inactive: -19.8% |  |
| N#CCC(=N)N1CCN(c2ccccc2Cl)CC1 | inactive: 12.6% |  |
| O=C(O)Cc1sc(NCc2ccco2)nc1-c1ccccc1 |  | active: 3.55 µM |
| CCc1ccc(-c2nc(CN3CCC(C(=O)NCc4ccccc4OC)CC3)c(C)o2)cc1 |  | inconclusive [inhibitor, single point] |
| CCC(=O)N1CCc2cc(Br)cc(S(=O)(=O)CCC(=O)NCCc3ccccc3)c21 |  | inconclusive [inhibitor, single point] |
| O=S(=O)(Nc1nc2ccccc2nc1N1CCN(c2ccccn2)CC1)c1ccc(Cl)cc1 |  | active: 11.2 µM |
| Cc1ccc(C(NC(=O)N2CCOCC2)C(Cl)Cl)cc1F (stereo unspecified) |  | active: 20 µM |
| Cc1ccc(C(C)(C)C)cc1 | inactive: 11.6% |  |
| O=C1OCCC1Sc1nnc(-c2cccnc2)n1-c1ccccc1F (stereo unspecified) | inactive: -0.226% |  |
